# According to PMC4336329 (PLoS ONE, 2015):
# The campaign covered roughly 310,000 compounds. About 2,200 (0.71%) showed an effect of 50% or more. Effects have a minus sign here. Some of the results follow.
# Target: human ether-à-go-go-related gene (hERG) potassium channel (human, UniProt Q12809)
# Experiment: primary screen, population patch clamp on CHO cells stably expressing hERG
# human ether-à-go-go-related gene (hERG) potassium channel, sequence (Q12809 whole entry, looked up): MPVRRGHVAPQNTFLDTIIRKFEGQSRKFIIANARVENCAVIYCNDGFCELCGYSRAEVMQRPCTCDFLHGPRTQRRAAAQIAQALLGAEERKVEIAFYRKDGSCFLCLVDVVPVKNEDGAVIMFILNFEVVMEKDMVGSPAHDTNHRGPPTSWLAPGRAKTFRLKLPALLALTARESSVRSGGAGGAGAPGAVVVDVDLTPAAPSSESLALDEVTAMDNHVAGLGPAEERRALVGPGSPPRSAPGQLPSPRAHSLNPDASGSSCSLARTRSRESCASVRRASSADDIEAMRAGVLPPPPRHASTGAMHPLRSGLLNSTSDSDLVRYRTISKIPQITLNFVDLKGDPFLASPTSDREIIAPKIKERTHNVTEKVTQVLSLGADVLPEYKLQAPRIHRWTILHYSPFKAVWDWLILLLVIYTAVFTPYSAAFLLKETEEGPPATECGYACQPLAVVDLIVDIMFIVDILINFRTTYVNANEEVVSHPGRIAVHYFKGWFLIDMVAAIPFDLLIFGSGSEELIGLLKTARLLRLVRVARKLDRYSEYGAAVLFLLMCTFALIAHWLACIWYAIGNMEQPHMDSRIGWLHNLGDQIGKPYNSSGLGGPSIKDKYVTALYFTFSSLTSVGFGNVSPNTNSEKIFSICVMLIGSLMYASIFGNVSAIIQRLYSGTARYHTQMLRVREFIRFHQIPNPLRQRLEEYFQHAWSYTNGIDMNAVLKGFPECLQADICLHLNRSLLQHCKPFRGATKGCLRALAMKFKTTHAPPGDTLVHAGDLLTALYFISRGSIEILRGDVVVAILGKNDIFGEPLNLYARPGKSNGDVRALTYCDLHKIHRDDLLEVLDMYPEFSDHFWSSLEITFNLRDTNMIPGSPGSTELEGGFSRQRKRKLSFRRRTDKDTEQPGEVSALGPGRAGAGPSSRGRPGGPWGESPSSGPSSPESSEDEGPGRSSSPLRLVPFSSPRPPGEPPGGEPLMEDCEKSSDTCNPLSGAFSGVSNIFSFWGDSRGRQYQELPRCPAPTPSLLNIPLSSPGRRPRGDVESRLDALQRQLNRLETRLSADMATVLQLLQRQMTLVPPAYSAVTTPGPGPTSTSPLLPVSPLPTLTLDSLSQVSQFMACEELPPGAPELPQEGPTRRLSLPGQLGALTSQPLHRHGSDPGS
row,Structure (SMILES),"hERG current change (%, negative = inhibition) at 1uM [%]"
1,CCCC1=NN(C(=O)C(=O)Nc2ccc(Br)cc2)C(O)(C(F)(F)F)C1 (stereo not drawn),7.3
2,CCC1CCCCN1CC(=O)c1c(C)[nH]c2ccccc12 (stereo not drawn),-1.2
3,CC(C)(C)c1ccc(C(=O)NC(=S)Nc2nc3c(s2)CCCC3)cc1,9.38
4,CCn1c(NCCO)nc2c(c1=O)C(C)(CC)Cc1ccccc1-2 (stereo not drawn),13.9
5,COC(=O)C1=C(c2ccc(F)cc2OCc2ccccc2)C[C@@H]2CC[C@H]1N2C(=O)NCc1ccccc1C(F)(F)F,16.4
6,O=C(Nc1ccc(F)cc1)c1cc(-c2ccncc2)nc2c(Cl)cccc12,11.5
7,CC(=O)c1sc(NC(=O)COc2ccc(Cl)cc2C)nc1C,10.2
8,CSc1nsc(SCC(=O)N2CCCCC2)n1,10.3
9,CC(=O)Nc1ccc(NC(=O)c2ccc(-c3ccc([N+](=O)[O-])cc3)o2)cc1,-5.28
10,O=C(CN1C(=O)NC(Cc2ccccc2)(Cc2ccccc2)C1=O)NCC1CCCCC1,-7.14
11,COc1ccc(OC)c(-c2nc(C)sc2CC(=O)O)c1,12.7
12,O=C(CCCc1nc(-c2ccc(Cl)cc2)no1)Nc1cccnc1,1.44
13,NC(=O)OCC(COC(N)=O)c1ccccc1.O,2
14,C/C(NCCCn1ccnc1)=C(\C#N)C(N)=O,-3.48
15,O=C(O)C(=O)O.c1ccc(CNC23CC4CC(CC(C4)C2)C3)nc1,10.9
16,COc1ccc(NS(=O)(=O)c2ccc(-c3n[nH]c(=S)n3Cc3ccccc3)cc2)cc1,1.4
17,CC(C)N(C(=O)CSc1ccc(S(=O)(=O)N2CCCCC2)cn1)C(C)C,-4.54
18,COCCn1c(-c2ccccc2)nc2c(c(=O)c3ccccc3n2C)c1=O,13.1
19,Nc1nonc1/C(=N/O)N1CCCC1,5.17

row,Structure (SMILES),"hERG current change (%, negative = inhibition) at 1uM [%]"
1,CC(NC(=O)CCNC(=O)c1ccc(Br)cc1)c1ccc(-n2ccnc2)cc1 (stereo not drawn),-12.6
2,COC(=O)C1=C(c2ccc(C(C)=O)cc2)C[C@@H]2CC[C@H]1N2C(=O)NCCOc1ccccc1Cl,-0.289
3,Cc1ccc(S(=O)(=O)N2CCCC2CNC(=O)c2ccc(F)c(F)c2)cc1 (stereo not drawn),7.11
4,O=C(Cc1ccccc1)Nc1ccccc1CO,10.6
5,Cc1cc(C)n2c(Br)c(CSc3nc4ccccc4o3)nc2n1,-53
6,CC(=O)OC(Cn1ccnc1)c1ccccc1.Cl (stereo not drawn),3.91
7,CCCCn1c(=O)c(C(=O)N/N=C/c2ccc(F)cc2)c(O)c2ccccc21,10.4
8,Nc1nnc(SCC(=O)N2CCc3ccccc32)n1-c1ccccc1,12.1
9,COc1ccccc1NC(=O)CSC1CC(=O)N(c2ccc3c(c2)OCO3)C1=O (stereo not drawn),3.61
10,COc1ccc([C@H]2/C=C\CN(S(=O)(=O)c3ccc4ccccc4c3)[C@@H](C)C(=O)N2Cc2ccc(F)cc2)cc1,6.58
11,Cc1cccc(NC2(C(F)(F)F)N=C(c3ccccc3)NC2=O)n1 (stereo not drawn),6.15
12,CCCC(=O)NC(=S)Nc1cc(-c2nc3ncccc3o2)ccc1C,8.65
13,c1ccc2c(c1)Cc1ccccc1O2,16.2
14,COCCCNC(=O)CC(NS(=O)(=O)c1ccc(Cl)cc1)c1ccco1 (stereo not drawn),6.62
15,CCOc1ccc(-n2c(SCC)nc3c(c2=O)SCC3)cc1,8.71
16,COc1ccc(CN(C)CC(=O)Nc2cccc3ccccc23)cc1F,9.27
17,O=C1Nc2cc(Cl)c(Cl)cc2N(O)N1c1cc(Cl)cc(Cl)c1,17.7
18,CC(C)c1ccc(NC(=O)COC(=O)[C@H](CCC(N)=O)NC(=O)c2ccc(F)cc2)cc1,-6.65
19,COc1ccc(S(=O)(=O)N2CCC(C(=O)NCC3CCCO3)CC2)cc1OC (stereo not drawn),16.8

row,Structure (SMILES),"hERG current change (%, negative = inhibition) at 1uM [%]"
1,Cc1nc(NC(=O)CSc2nnc(C3CC3)n2C)sc1C(=O)N(C)C,19.1
2,N#CCCN(Cc1ccccc1)C(=O)Nc1ccc(F)cc1,22
3,CCOC(=O)c1c(C)[nH]c(C(=O)OCC(=O)NC(C)C)c1C,-7.3
4,COc1ccc(/C=C/C(=O)NCCNC(=O)c2ccccc2)cc1OC,4.49
5,O=S(=O)(Nc1cccc2c1CCCC2)c1cccc(C(F)(F)F)c1,8.01
6,COC(=O)c1ccc(OCC(=O)c2ccc(O)cc2O)cc1,1.47
7,NC(CSCc1cccc(Br)c1)C(=O)O (stereo not drawn),-4.13
8,N#Cc1ccc(CN2C=NS(=O)(=O)c3ccccc32)cc1,2.19
9,Cc1cc(C(=O)NNC(=S)NCC(C)C)no1,7.44
10,Cc1cccn2c(=O)c3cc(C(=O)NCc4cccnc4)c(=N)n(C(C)C)c3nc12,-67.3
11,COc1ccc(NC(=O)N(Cc2cccs2)Cc2cc3cc4c(cc3[nH]c2=O)OCO4)cc1,6
12,Cn1c(O)c(C=Nc2ccccc2-c2ccccc2)c(=O)n(C)c1=O,16.4
13,Cc1nc2ccccc2c(=O)n1NC(=O)COc1ccccc1,5.37
14,c1ccc2cc(CN3CCOCC3)ccc2c1,10.9
15,CC[C@H](C)[C@@H](C(=O)NCCCCCCCCCCC(=O)N1CCNCC1)n1cc(CCCCN=C(N)N)nn1,13.5
16,COc1ccc(/C=N/NC(=O)c2ccccc2O)cc1COc1ccccn1,2.06
17,O=C(N/N=C/c1cccs1)c1cc(-c2ccncc2)nc2ccccc12,18.6
18,COc1ccc(C2C(C(=O)Nc3ccccc3)=C(C)N=C3SCC(=O)N32)cc1 (stereo not drawn),4.83
19,Cc1onc(-c2ccccc2Cl)c1C(=O)OCC(=O)Nc1cccc(S(=O)(=O)N(C)C)c1,7.33
